# Laboratory results: article PMC4336329 (PLoS ONE, 2015)
# Out of some 310,000 compounds screened, about 14,000 (4.5%) showed an effect of 50% or more. The effect is printed as a negative number. The list shows a part of the results.
# Biological target: human ether-à-go-go-related gene (hERG) potassium channel (human, UniProt Q12809)
# Assay: primary screen, population patch clamp on CHO cells stably expressing hERG
# 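Note: peak tail current of the secondary pulse compared with the same well before compound.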
# Chain of human ether-à-go-go-related gene (hERG) potassium channel (Q12809 whole entry, looked up): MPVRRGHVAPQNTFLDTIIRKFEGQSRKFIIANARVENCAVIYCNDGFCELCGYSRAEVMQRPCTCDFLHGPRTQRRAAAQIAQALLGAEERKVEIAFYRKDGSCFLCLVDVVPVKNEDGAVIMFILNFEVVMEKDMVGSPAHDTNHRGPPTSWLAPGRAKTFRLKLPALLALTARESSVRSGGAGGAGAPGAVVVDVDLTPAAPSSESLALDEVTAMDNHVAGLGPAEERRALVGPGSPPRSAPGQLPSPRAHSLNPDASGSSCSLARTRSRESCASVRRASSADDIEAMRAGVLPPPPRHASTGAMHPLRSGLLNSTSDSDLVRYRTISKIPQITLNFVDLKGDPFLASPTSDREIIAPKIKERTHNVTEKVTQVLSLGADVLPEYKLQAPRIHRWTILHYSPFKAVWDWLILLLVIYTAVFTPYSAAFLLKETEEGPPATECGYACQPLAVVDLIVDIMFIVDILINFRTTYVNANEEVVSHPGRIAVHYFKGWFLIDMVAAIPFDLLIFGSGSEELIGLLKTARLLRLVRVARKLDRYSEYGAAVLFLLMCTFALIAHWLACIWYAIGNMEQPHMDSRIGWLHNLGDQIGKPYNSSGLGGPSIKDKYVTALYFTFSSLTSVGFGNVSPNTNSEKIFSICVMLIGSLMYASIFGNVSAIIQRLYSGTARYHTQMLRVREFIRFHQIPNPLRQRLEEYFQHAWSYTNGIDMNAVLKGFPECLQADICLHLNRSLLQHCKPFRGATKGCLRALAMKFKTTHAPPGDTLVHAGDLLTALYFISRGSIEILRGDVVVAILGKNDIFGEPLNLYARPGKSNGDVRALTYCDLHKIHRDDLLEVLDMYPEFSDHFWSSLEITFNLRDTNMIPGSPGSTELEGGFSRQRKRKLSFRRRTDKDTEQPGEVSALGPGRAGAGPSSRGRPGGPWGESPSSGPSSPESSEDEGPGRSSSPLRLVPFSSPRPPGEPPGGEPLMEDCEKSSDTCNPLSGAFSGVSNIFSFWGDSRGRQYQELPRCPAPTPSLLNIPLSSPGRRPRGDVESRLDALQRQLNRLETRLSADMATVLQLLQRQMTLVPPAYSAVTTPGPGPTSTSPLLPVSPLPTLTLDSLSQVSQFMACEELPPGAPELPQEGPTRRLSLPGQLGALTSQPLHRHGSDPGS
row,Compound,"hERG current change (%, negative = inhibition) at 10uM [%]"
1,CCOc1ccc(NC(=S)N2CCN(S(=O)(=O)c3ccc(OC)cc3)CC2)cc1,4.43
2,Cc1ccc(S(=O)(=O)NCC(=O)OCc2ccccc2)cc1,-3
3,O=C(NCC(c1ccco1)N1CCN(c2ccccc2)CC1)c1cccs1 (centres unmarked),-14.9
4,CCOc1ccc(C(=O)NCC(=O)OCCCC(=O)c2ccc(F)cc2)cc1OCC,-5.38
5,O=C(Nc1cc([N+](=O)[O-])ccc1N1CCCC1)c1ccccc1,-33.3
6,CCc1ccccc1NC(=O)CSc1nc2c(c(-c3ccco3)c1C#N)CCCC2,26.5
7,COCc1nc2c([nH]1)c(=O)n(C)c(=O)n2CC(C)C,3.74
8,CCOC(=O)C1CCCCN1Cc1cccc(OCc2ccccc2)c1.O=C(O)C(=O)O (centres unmarked),5.67
9,OC1CCN(c2c3c(nc4cc(-c5cccc(F)c5)nn24)CCCC3)CC1,-23.1
10,CCOC(=O)N/N=C(\C)c1ccc(OC(F)F)cc1OC(F)F,-1.2
11,CCSCc1nnc(SCC(=O)c2ccc(OC)cc2)n1C,-11
12,CCN(CC)C(=O)c1sc(N)c(C#N)c1C,12.6
13,Cc1c(C(=O)NCCN2CCOCC2)oc2ccccc12,11.6
14,COc1ccc(C2(O)CN(c3ccccc3)C3=[N+]2CCS3)cc1OC.[Br-] (centres unmarked),1.7
15,CCOc1ccc(NC(=S)Nc2ccc3nsnc3c2)cc1,-8.21
16,CCn1c(SCc2ccccc2)nnc1-c1cccnc1,9.29
17,CCN(CC)S(=O)(=O)c1ccc(Cl)c(NC(=O)COc2ccccc2[N+](=O)[O-])c1,7
18,CC(=O)c1ccc(NC(=O)CN2CCC(C(=O)c3ccc4c(c3)OCCO4)CC2)cc1,-29.5
19,COc1ccccc1NC(=O)CCS(=O)(=O)c1ccc2c(c1)oc(=O)n2C,10.5
20,O=C(O)c1ccc(N=Nc2c(O)[nH]c3cc(Cl)ccc23)cc1,22.1
21,Cc1cc(O)ccc1NC(=O)c1ccccc1,4.37
22,Cc1ccc(-c2nnn(CC(=O)N(CC(=O)NCc3ccccc3)c3cccc(C)c3C)n2)o1,-17.8
23,O=C(COc1ccccc1)NNc1nc2c(F)cc(F)cc2s1,-62.6

row,Compound,"hERG current change (%, negative = inhibition) at 10uM [%]"
1,COc1ccc(Cc2nnc(SC)[nH]c2=O)cc1,19.7
2,O=c1cc(-c2ccccc2)nc2n1Cc1ccccc1-2,-17.5
3,Clc1ccc(OCC#CCN2CCCCCC2)cc1.O=C(O)C(=O)O,-34.7
4,Cc1ccc(Nc2nnns2)cc1C,15
5,CCOc1ccc(-n2c(SCC(=O)Nc3ccc(OC)cc3)nc3sc4c(c3c2=O)CCN(C)C4)cc1,10.2
6,Cc1ccc(/C=N/Nc2ccc(F)cc2F)s1,14.2
7,O=C(CSC1=NCCS1)N1CCCCCC1,10.5
8,COc1cc(CCC(=O)NNC(=O)c2cccc(Cl)c2)cc(OC)c1OC,22
9,O=C(NCC(=O)N(CCN1CCOCC1)C(C(=O)NC1CCCC1)c1ccccc1)c1cccs1 (centres unmarked),3.17
10,O=C(CCc1ccc(O)cc1)NNC(=S)NCCc1ccccc1,-8.2
11,COc1cc(C2Oc3cc(C4Oc5cc(O)cc(O)c5C(=O)C4O)ccc3OC2CO)ccc1O (centres unmarked),9.99
12,CC(C)c1nnc(SCC(=O)NC2CCCCC2)n1C,12.2
13,CCN(CC)CC(=O)NCc1cc(-c2ccc(OC)cc2)no1,-6.97
14,CC(C)c1ccc(/C=C2\C(=O)N(CCN3CCOCC3)C(=S)N2C)cc1,2.18
15,N/C(=N\OC(=O)CCCOc1ccc(Cl)cc1Cl)c1ccccn1,16.6
16,Cc1ccc(/C=N/NC(=O)c2nnn(-c3nonc3N)c2CSc2ccc(Cl)cc2)o1,-26.9
17,O=C(Nc1ccc2c(c1)CCC2)c1ccc(F)c(S(=O)(=O)N2CCOCC2)c1,-18.4
18,Cc1ccccc1NC(=O)C1CCN(C2=NS(=O)(=O)c3ccccc32)CC1,-15.2
19,Cc1cc(C)n2nc(NCc3ccccc3)nc2n1,-9.34
20,CCOC(=O)C1=C(C)NC2=C(C(=O)C(C(=O)OCC)C(c3cccc(OC)c3)C2)C1c1ccccn1 (centres unmarked),-1.33
21,CCCn1c(SCC(=O)NC(C)c2ccccc2)n[nH]c1=O (centres unmarked),17.3
22,COc1ccc(C)cc1N(C(=O)COc1ccccc1)c1nc2ccccc2s1,13.2
23,CCc1ccc(OCc2nnc(SCC(=O)NCC3CCCO3)n2C)cc1 (centres unmarked),-21.7

row,Compound,"hERG current change (%, negative = inhibition) at 10uM [%]"
1,O=C(CCCCCC(=O)N(CCO)CCO)N(CCO)CCO,-3.63
2,CNS(=O)(=O)c1cc(N(C)S(=O)(=O)c2ccc(C)cc2)c(C)cc1C,-10.2
3,O=C(COC(=O)C1CC2C=CC1C2)NCCc1ccccc1 (centres unmarked),14.5
4,CCOc1ccccc1N(CC(=O)OC)S(=O)(=O)c1ccccc1,-3.82
5,CCn1nc(C)c(CCC(=O)O)c1C,15
6,CCOc1ccc(CCNC(=O)CCS(=O)(=O)c2ccc(OC)cc2)cc1OCC,-14
7,COc1ccc(S(=O)(=O)Nc2cc(C(=O)NC(C)C)ccc2N2CCOCC2)cc1,-20.3
8,COc1ccc(OCCOC(=O)c2cccc(-n3cnnn3)c2)cc1,-15.7
9,OCCNc1nc(Nc2ccccc2OC(F)(F)F)nc(N2CCCC2)n1,-21.9
10,CC(CC1CC(C)(C)OC1=O)C(=O)Nc1nncs1 (centres unmarked),-2.26
11,C=CCOc1ccc(/C=C/C(=O)OCC(=O)Nc2c(C)n(C)n(-c3ccccc3)c2=O)cc1,-10.5
12,O=C(COC(=O)c1ncc(Cl)c(Cl)c1Cl)NNC(=O)c1ccccc1,-1.26
13,Nc1ccc(S(=O)(=O)Nc2ccccn2)cc1,10.1
14,Cc1cc2c(cc(C(=O)OCC(=O)NCc3ccco3)n2C)s1,1.12
15,CC(NC(=O)CN1C(=O)c2ccccc2C1=O)c1ccccc1 (centres unmarked),10.2
16,O=C(c1cc(=O)[nH]c2ccccc12)N1CCN(S(=O)(=O)c2ccc3ccccc3c2)CC1,-18.8
17,Cc1ccc(-n2cnn(-c3ccc([N+](=O)[O-])cc3[N+](=O)[O-])c2=O)cc1,5.44
18,Cc1c(N=Nc2c(O)[nH]c(=S)[nH]c2=O)c(=O)n(-c2ccccc2)n1C,16.6
19,Cc1cc(Cl)ccc1N=c1ssnc1Cl,20.1
20,Cc1ccc(C(=O)N(Cc2cccs2)C2CCS(=O)(=O)C2)cc1 (centres unmarked),0.98
21,COc1cc(CNc2ccc3[nH]c(=O)[nH]c3c2)ccc1OCc1ccc(F)cc1Cl,-9.89
22,CCN(CC)S(=O)(=O)c1ccc2c(c1)nc(CCC(=O)Nc1cccc(C(F)(F)F)c1)n2CC,-5.84
23,O=C(CSc1cn[nH]n1)Nc1ccccc1F,9.07

row,Compound,"hERG current change (%, negative = inhibition) at 10uM [%]"
1,COc1cccc(/C=C2/C(=O)NN(c3ccc(Br)cc3)C2=O)c1O,20.9
2,O=C(Nc1cccc(Cl)c1N1CCCC1)c1ccc(Br)o1,-5.58
3,COc1ccc(OC)c(/C=C/C(=O)OCC(=O)Nc2nnc(-c3ccccc3)o2)c1,-3.14
4,C=CCNC(=S)N1CCC(Cc2ccccc2)CC1,-25.9
5,CN1CCN(C(=O)c2ccc(CNS(=O)(=O)c3ccc(F)c(Cl)c3)cc2)CC1,-9.16
6,Cc1occc1C(=O)N1CCN(c2ccccc2)CC1,-8.67
7,O=C(NCc1ccco1)C1CCCN(S(=O)(=O)Cc2ccccc2)C1 (centres unmarked),11.3
8,Cc1cc(=O)[nH]c(SCC(=O)c2ccc3c(c2)NC(=O)CO3)n1,5.75
9,O=C(Oc1ccc(Br)cc1)c1cccnc1,4.3
10,O=C(NCc1ccc(Cl)cc1)C1CCCN1C(=O)Nc1ccc(F)cc1 (centres unmarked),-40
11,CCn1c(O)c(/C=C2\C=Nc3ccccc32)sc1=Nc1ccc(C)cc1,-0.663
12,CC(NC(=O)CSc1nc2c(c(C(F)(F)F)n1)CCc1ccccc1-2)c1ccccc1 (centres unmarked),5.13
13,COc1ccc(C2C(C(=O)C(C)(C)C)=C(O)C(=O)N2Cc2ccccc2)cc1 (centres unmarked),10.5
14,Cc1ccc(S(=O)(=O)N2CCC(C(=O)N3CCC(C(=O)NCc4cccnc4)CC3)CC2)cc1,9.69
15,CS(=O)(=O)c1ccc(Cl)c(NC(=O)c2cc(S(=O)(=O)N3CCOCC3)ccc2N2CCCC2)c1,-81.3
16,CC1CC(C)CN(CCCNC(=O)Cc2c(C(=O)O)n(C)c3ccccc23)C1 (centres unmarked),-15.9
17,O=C(Cc1ccccc1)Nc1ccc(CN2CCOCC2)cc1,-9.66
18,CCn1cc(C2C3=C(CC(C)(C)CC3=O)N(c3ccccc3)C3=C2C(=O)CC(C)(C)C3)c(C)n1,-2.03
19,COC(=O)N/N=C\c1ccc(OC(=O)c2ccco2)cc1,19.8
20,Cc1cc(C)cc(NC(=O)NC2CCN(CC(=O)Nc3cccc(Cl)c3C)CC2)c1,-2.07
